Source: PubChem BioAssay AID488969 (Vanderbilt High Throughput Screening Facility, 2010)
Over roughly 110,000 compounds, “z-score” has its median near -0.1; the highest 2% begin near 2. This is one part of the list.

target: Metabotropic glutamate receptor 8 (Rattus norvegicus) (UniProt P70579); test: rat mGluR8 modulators via GIRK flux, primary screen, cell-based, thallium flux, HTS (AID 488969); details: HEK293 rat mGluR8, GIRK (G protein-gated inwardly rectifying potassium channel) thallium flux, FluoZin2; at 10 µM; stronger effect = higher value; submaximal glutamate (EC20) added with thallium
Chain of UniProt P70579 (P70579 whole entry, looked up): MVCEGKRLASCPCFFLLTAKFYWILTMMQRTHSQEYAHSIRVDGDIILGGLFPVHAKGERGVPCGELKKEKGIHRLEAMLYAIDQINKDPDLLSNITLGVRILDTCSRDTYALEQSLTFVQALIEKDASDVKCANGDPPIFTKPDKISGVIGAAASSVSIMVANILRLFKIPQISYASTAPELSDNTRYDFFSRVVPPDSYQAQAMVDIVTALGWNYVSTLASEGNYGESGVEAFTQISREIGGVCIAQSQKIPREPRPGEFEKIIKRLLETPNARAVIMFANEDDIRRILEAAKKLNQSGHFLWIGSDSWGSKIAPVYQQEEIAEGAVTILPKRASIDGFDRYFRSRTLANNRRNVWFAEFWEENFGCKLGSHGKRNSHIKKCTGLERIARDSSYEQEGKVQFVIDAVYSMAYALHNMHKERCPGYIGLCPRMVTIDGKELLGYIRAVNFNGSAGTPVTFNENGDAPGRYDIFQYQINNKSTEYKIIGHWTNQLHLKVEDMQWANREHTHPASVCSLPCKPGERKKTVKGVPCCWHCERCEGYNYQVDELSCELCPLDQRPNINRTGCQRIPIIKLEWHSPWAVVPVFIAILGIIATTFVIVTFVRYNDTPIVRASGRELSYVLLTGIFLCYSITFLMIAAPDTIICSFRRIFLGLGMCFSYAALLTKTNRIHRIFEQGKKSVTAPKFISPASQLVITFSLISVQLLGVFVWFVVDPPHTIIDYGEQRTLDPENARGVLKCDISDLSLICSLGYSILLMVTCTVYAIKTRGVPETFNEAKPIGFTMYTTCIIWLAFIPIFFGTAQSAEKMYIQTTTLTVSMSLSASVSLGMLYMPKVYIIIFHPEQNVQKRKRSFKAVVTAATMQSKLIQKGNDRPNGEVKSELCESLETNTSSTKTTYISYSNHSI

SMILES | z-score
Cc1ccc(S(=O)(=O)c2ccc(C)cc2)cc1 | -0.487
c1ccc(-c2c[nH]c3[n+]2CCCCC3)cc1 | -0.144
C=CCN(CC=C)CCOc1ccccc1 | -0.151
Cc1csc(NC(=O)CSc2nnnn2C)n1 | -0.0645
Cc1c(Cl)cnc(NC(=O)COC(=O)c2cccc(S(=O)(=O)N3CCc4ccccc4C3)c2)c1Cl | -0.11
Cc1c(N=C2NC(=O)C(CC(=O)Nc3ccc(Cl)cc3)S2)c(=O)n(-c2ccccc2)n1C (stereo not given) | -0.0732
O=C1CN=CN=CN1c1ccc(Cl)cc1Cl | -0.115
CC1=C(C#N)C(c2cccnc2)C2=C(CC(c3ccc(Cl)cc3)CC2=O)N1 (stereo not given) | 0.137
COc1cccc(/C=N/N2C(=O)NC3(CCCCC3)C2=O)c1O | -0.173
CC1(C)CC(=O)c2cc(C(=O)N3CCN(CCO)CC3)c(=O)n(-c3ccc(Cl)cc3)c2C1 | -0.773
NC(=O)N/N=C/c1cc(Br)ccc1OCC(=O)NCc1ccccc1 | -0.356
Cc1ccnc(NC(=O)C2CCCN(S(=O)(=O)c3cnc[nH]3)C2)c1 (stereo not given) | -0.0129
CCOC(=O)c1c(NC(=O)C2CCCO2)sc2c1CCC2 (stereo not given) | -0.878
Cc1onc(-c2ccccc2)c1C(=O)NC(C)C | -0.244
O=C(CSc1nnc(-c2c[nH]c3ccccc23)o1)N(Cc1ccccc1)c1ccc(F)cc1 | -0.0763
COc1ccc(OC)c(Nc2cc(C(=O)NCCCN3CCOCC3)c3ccccc3n2)c1 | -1.13
CCc1nc2sc3c(c2c(=O)n1NC(=O)CCl)CCCC3 | -0.281
CCN(CCO)c1nc(SC)nc2c1sc1nc(-c3ccco3)c3c(c12)CCC3 | -0.0729
CCn1cc(C(=O)Nc2ccc3c(c2)OCCO3)c2cc(OC)c(OC)cc2c1=O | -0.483
O=C(CCN1C(=O)/C(=C\c2cccs2)SC1=S)NC1=NCCS1 | -0.557
O=C(COC(=O)c1cccnc1Nc1cccc(C(F)(F)F)c1)NCCN1C(=O)CSC1=O | -0.143
O=C(Cc1coc2ccc3ccccc3c12)Nc1nnc(C2CC2)s1 | -0.082
COc1ccc(-c2nnc(SCC(=O)NCc3cccs3)n2C)cc1 | -0.0999
CC1CCCCN1C(=O)CSc1nnc(-c2cccnc2)n1C1CCCCC1 (stereo not given) | 0.109
O=C(O)CCc1ccc(-c2ccc(F)cc2)n1CC(=O)O | -0.104
Cc1nc2ccc(S(=O)(=O)N(C)CC(=O)NCc3ccc4c(c3)OCO4)cc2s1 | 0.73
N#Cc1c(N)n(CCOC(=O)c2cccc([N+](=O)[O-])c2)c2nc3ccccc3nc12 | -0.616
CC1=C(C(=O)NCc2ccccc2)C(c2cc(Br)cc(Br)c2OC(C)C)NC(=O)N1 (stereo not given) | 0.112
CCCC(=O)NC1=C(C#N)C2(CCCC2)Cc2ccccc21 | 0.0108
CCOc1ccc(CCNC(=O)c2cc3sccc3n2CC)cc1OCC | -1.07
